# Results from PubChem BioAssay AID1346428 (National Center for Advancing Translational Sciences (NCATS), 2018).
# “And” between values parts separate entries of the source, which are not always exact repeats. Equal entries are not always repeated. The whole screen tested about 48,000 compounds, of which about 1,200 (2.5%) were called active. Inconclusive results (about 2%) are left out.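 How the source made its calls: active means activation of at least 60% and not above a set upper limit (about 1 call in 100 departs from these limits); inconclusive means activation of 40% to 60%, or above that upper limit; inactive means activation under 40%.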 This is one part of the list.
# Target: Probable G-protein coupled receptor 32 (Homo sapiens) (UniProt O75388)
# Sequence of UniProt O75388 (O75388 whole entry, looked up): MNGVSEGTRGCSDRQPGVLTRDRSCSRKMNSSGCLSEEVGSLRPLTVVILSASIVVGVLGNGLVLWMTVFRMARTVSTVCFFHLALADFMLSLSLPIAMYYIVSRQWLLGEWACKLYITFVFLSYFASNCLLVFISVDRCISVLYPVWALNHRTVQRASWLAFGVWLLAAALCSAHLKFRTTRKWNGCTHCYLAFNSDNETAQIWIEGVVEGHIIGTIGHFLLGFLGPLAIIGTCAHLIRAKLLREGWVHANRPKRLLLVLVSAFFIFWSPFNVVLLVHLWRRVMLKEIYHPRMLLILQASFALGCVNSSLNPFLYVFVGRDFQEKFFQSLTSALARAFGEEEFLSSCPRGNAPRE
# Test: qHTS for Agonists of Human Resolvin D1 Receptor DRV1; further: 0% is about no effect
# Details: CHO-K1 GPR32 beta-arrestin PathHunter luminescence, 90 min; at 76.9 µM; hits give high values; zero percent set by DMSO-only wells
# Method in brief: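 Agonism was scored by beta-Gal fragment complementation (chemiluminescent read, 1 h detection at ambient temperature) reporting beta-arrestin binding to GPR32 in engineered CHO-K1 cells. Compound treatment lasted 90 min at 37 C, normalized to a DMSO basal control.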
row,Compound,activation
1,O=C(O)COc1nc(Cl)c(Cl)cc1Cl,inactive: 15.9%
2,C#C[C@]1(O)CC[C@H]2[C@@H]3CCC4=CC(=O)CC[C@]4(C)[C@H]3CC[C@@]21C,inactive: -4%
3,CC(C)[N+](C)(CCC(C(N)=O)(c1ccccc1)c1ccccc1)C(C)C,inactive: 7.55%
4,COc1ccc2c(c1)C13CCCCC1C(C2)N(C)CC3 (stereo not given),inactive: -0.594%
5,O=[N+]([O-])c1c(Cl)c(Cl)cc(Cl)c1Cl,inactive: -13.9%
6,Cc1ccc(N=CN(C)C=Nc2ccc(C)cc2C)c(C)c1,inactive: -8.94%
7,CC(C)CC(N(C)C)C1(c2ccc(Cl)cc2)CCC1 (stereo not given),inactive: 34.7%
8,CCOC(=O)c1ccc(NC(=O)c2cccn(Cc3ccc(C)cc3)c2=O)cc1,inactive: 21.9%
9,C=CCN1CC[C@]23c4c5ccc(O)c4O[C@H]2/C(=N/NC(=O)c2ccccc2)CC[C@@]3(O)[C@H]1C5,inactive: -4.94%
10,Cc1ccc(Cn2cccc(C(=O)Nc3nnc(C)s3)c2=O)cc1,inactive: 26.3%
11,CCN(CC)C(=O)c1ccc(NC(=O)Cn2nc(-c3ccc(C)cc3)c3ccccc3c2=O)cc1,inactive: 11.4%
12,COC(C)(C)CCCC(C)C/C=C/C(C)=C/C(=O)OC(C)C (stereo not given),inactive: 3.62%
13,CCOc1ccccc1CN(CCc1ccc2c(c1)OCO2)Cc1ccc(CC)cc1,inactive: -6.59%
14,N[C@@H](Cn1oc(=O)[nH]c1=O)C(=O)O,inactive: -10.7%
15,CSc1ncc(C(=O)Nc2ccc(Cl)cc2C(=O)c2ccccc2)c(C)n1,inactive: -8.99%
16,Cc1ccccc1-n1c(/C=C/c2ccc(O)cc2)nc2ccccc2c1=O,inactive: -34.3%
17,CC(C)(C)c1ccc(OCC(=O)Nc2ccc(Cl)cc2C(=O)c2ccccc2)cc1,inactive: 4.21%
18,NC(N)=NOCC[C@H](N)C(=O)O,inactive: -1.65%
19,CC(Cc1ccc2c(c1)OCO2)NO (stereo not given),inactive: -58.1%
20,N#Cc1cccc(NC(=O)CSc2nc3c(cc2C#N)N2CCC3CC2)c1,inactive: 20.6%
21,CC[C@H]1C[C@H]2[C@@H]3CCC4=CC(=O)CC[C@@H]4[C@H]3CC[C@]2(C)[C@H]1O,inactive: 18.8%
22,Cc1nnc(NC(=O)c2cccn(Cc3cccc([N+](=O)[O-])c3)c2=O)s1,inactive: -11.6%
23,S=C(NC1CCCCC1)N1CCC(c2cnc[nH]2)CC1,inactive: -4.84%
24,C[N+]1(CCC(C(N)=O)(c2ccccc2)c2ccccc2)CCCCC1,inactive: -0.145%

row,Compound,activation
1,c1ccc2c(c1)Sc1ccccc1N2CC1CN2CCC1CC2 (stereo not given),inactive: 8.89%
2,O=C1C(I)=CC(=C(c2cc(I)c(O)c(I)c2)c2ccccc2C(=O)O)C=C1I,inactive: -13.3%
3,CCCC12CN3CC(C)(CN(C1)C3c1ccccn1)C2=O (stereo not given),inactive: -5.49%
4,CNCCc1ccc(O)c(O)c1,inactive: -1.11%
5,Clc1cnc(Oc2ccc(Oc3ncc(Cl)cc3Cl)cc2)c(Cl)c1,inactive: -12.5%
6,CCCN(CCC)[C@@H]1CCc2ccc(O)cc2C1,inactive: 0.842%
7,O=c1c2ccccc2nc(/C=C/c2ccccc2O)n1-c1ccc(Br)cc1,inactive: -37.1%
8,Cc1ccc(-n2nc(C)c3c2NC(=O)CSC3c2ccc(O)cc2)cc1Cl (stereo not given),inactive: 34.4%
9,C=CC[C@]1(O)CC[C@H]2[C@@H]3CCC4=CC(=O)CCC4=C3C=C[C@@]21C,inactive: 21.4%
10,N#Cc1cccc(NC(=O)c2sc3nc4c(cc3c2N)N2CCC4CC2)c1,inactive: 40.4%
11,Cc1oc(-c2ccccc2Cl)nc1CN1C(=O)CN=C(c2ccccc2)c2cc(Cl)ccc21,inactive: -12.3%
12,CCOc1ccc(NC(=O)c2cccn(Cc3cccc(Cl)c3)c2=O)cc1,inactive: 7.82%
13,Cn1cnc(CCN)c1,inactive: -11.1%
14,CC(Cc1ccc(O)cc1)NCC(O)c1cc(O)cc(O)c1 (stereo not given),inactive: -3.2% and inactive: 8.24%
15,CN(N=O)c1ccc(O)c(O)c1,inactive: 27.9%
16,O=C1CC(c2ccc(F)cc2)c2c(c3ccccc3oc2=O)O1 (stereo not given),inactive: 3.19%
17,COc1ccc(CCNCc2ccc3c(c2)n(C)c(=O)n3C)cc1,inactive: 5.3%
18,O=C(Nc1ccc(Br)cc1C(=O)c1ccccc1Cl)c1ccccc1F,inactive: -2.65%
19,COc1cc(CC(C)N)cc2c1OCO2 (stereo not given),inactive: 4.77%
20,N#Cc1cc2c(nc1SCC(=O)Nc1ccc(F)c(Cl)c1)C1CCN2CC1,inactive: 17.7%
21,CCCN1CCC[C@@H]2Cc3nc(N)ncc3C[C@H]21,inactive: 38.7% and inactive: 5.61%
22,CCN[C@@H](C)Cc1ccccc1,inactive: 6.3%
23,C=CCN1C[C@H](C)N([C@H](c2ccc(C(=O)N(CC)CC)cc2)c2cccc(OC)c2)C[C@H]1C,inactive: -0.101%
24,CC(C)=CCOc1c2occc2cc2ccc(=O)oc12,inactive: 4.79% and inactive: -1.52%

row,Compound,activation
1,N[C@@H](Cc1ccc(N(CCCl)CCCl)cc1)C(=O)O,inactive: -15.5%
2,OC1CCCCC1N1CCC(c2ccccc2)CC1 (stereo not given),inactive: -5.55%
3,CC(Cc1ccc(OCC(=O)O)cc1)NCC(O)c1cccc(Cl)c1 (stereo not given),inactive: 8.32%
4,Cc1nnc(NC(=O)c2cccn(Cc3cccc(Cl)c3)c2=O)s1,inactive: 17.1%
5,O=c1c2ccccc2nc(/C=C/c2ccccc2)n1-c1ccccc1F,inactive: -3.1%
6,O=[N+]([O-])/C=C/c1ccc2c(c1)OCO2,inactive: -18.3%
7,CC(C)N(CCC(C(N)=O)(c1ccccc1)c1ccccn1)C(C)C (stereo not given),inactive: -10.8% and inactive: 2.37% and inactive: 6.19%
8,CN1CCN(c2oc(-c3ccc(COc4ccccc4)o3)nc2C#N)CC1,inactive: -7.29%
9,C[C@]12CCC(=O)C=C1CC[C@@H]1[C@H]3CC[C@](C)(O)[C@@]3(C)CC[C@@H]12,active: 106%
10,C[C@@H]1[C@@H]2Cc3ccc(O)cc3[C@@]1(C)CCN2CC1CC1,inactive: -0.695%
11,C[C@H](N)[C@H](O)c1ccc(O)c(O)c1,inactive: 6.72%
12,COc1cc(C(c2c(O)c3ccccc3oc2=O)c2c(C)n(C)n(-c3ccccc3)c2=O)ccc1O (stereo not given),inactive: -0.464%
13,Nc1nc(N)nc(NC2CC2)n1,inactive: 0.33%
14,Nc1c(C(=O)Nc2ccc(Cl)cc2)sc2nc3c(cc12)N1CCC3CC1,active: 76.8%
15,Nc1ccc(N=Nc2ccccc2)cc1,inactive: -75.3%
16,Cn1cc(/C=C/c2nc3ccccc3c(=O)n2-c2ccccc2)c2ccccc21,inactive: -8.23%
17,O=C(Nc1ccc2c(c1)OCO2)c1cccn(Cc2cccc(F)c2)c1=O,inactive: 0.456%
18,Cc1ccc(-c2nc3ccc(C)cn3c2CC(=O)N(C)C)cc1,inactive: 11.3%
19,C[C@H](N)CN1CCc2ccc(Br)cc21,inactive: -6.39%
20,CC(C(=O)c1ccccc1)N(C)C (stereo not given),inactive: 5.57%
21,Cc1c(Cl)cccc1NC(=O)CN1C(=O)C(C)N=C(c2ccccc2)c2ccccc21 (stereo not given),inactive: 8.06%
22,COc1cc(C(c2c(O)c3ccccc3oc2=O)c2c(C)n(C)n(-c3ccccc3)c2=O)ccc1OCC(=O)O (stereo not given),inactive: 6.2%
23,O=C(Nc1ccc(Cl)cc1C(=O)c1ccccc1)c1ccccc1Br,inactive: -24.2%
24,CN1CCc2cc(Cl)c(O)cc2[C@H]2c3ccccc3CC[C@@H]21,inactive: 33.8%

row,Compound,activation
1,NCCc1ccc(S(=O)(=O)F)cc1,inactive: 14.4%
2,Nc1c(C(=O)Nc2ccc(Br)cc2F)sc2nc3c(cc12)N1CCC3CC1,inactive: -0.953%
3,Cc1cccc(-n2c(/C=C/c3c(C)[nH]c4ccccc34)nc3ccccc3c2=O)c1,inactive: 3.87%
4,CCN(CC)CCOC(=O)C(C)(c1ccccc1)c1ccccc1,inactive: -2.94%
5,COc1ccccc1NC(=O)N(Cc1ccc2c(c1)OCO2)C1CCN(Cc2ccccc2)CC1,inactive: -17.8%
6,CN[C@@H]1C[C@@H](c2ccc(Cl)c(Cl)c2)c2ccccc21,inactive: 15.1%
7,O=[N+]([O-])c1cc(O)c(O)c([N+](=O)[O-])c1,inactive: -32%
8,CCc1ccccc1NC(=O)c1cccn(Cc2ccccc2F)c1=O,inactive: 11.7%
9,CCCC(C)C1(CC)C(=O)N=C(S)NC1=O (stereo not given),inactive: -20.7%
10,O=C(Nc1ccc2c(c1)OCCO2)c1cccn(Cc2cccc(F)c2)c1=O,inactive: -0.872%
11,Nc1ccccc1C(=O)O,inactive: -11.6%
12,COc1ccc(-c2nc(CN3C(=O)CN=C(c4ccccc4)c4cc(Cl)ccc43)c(C)o2)cc1,inactive: -33.1%
13,CCOc1ccc2nc(NC(=O)c3cccn(Cc4ccc(Cl)cc4)c3=O)sc2c1,inactive: 14.4%
14,Cc1cc(O)ccc1Cl,inactive: 19.8%
15,O=C1OC(CCN2CCCCC2)OC1(c1ccccc1)c1ccccc1 (stereo not given),inactive: 36.1%
16,N[C@@H](Cn1ccc(=O)[nH]c1=O)C(=O)O,inactive: -4.86%
17,COc1ccc(OC)c(NC(=O)Cn2cc(C(=O)c3ccccc3)c3ccccc32)c1,inactive: -12.7%
18,O=C(Nc1ccc(Cl)cc1C(=O)c1ccccc1)c1cc(Cl)cc(Cl)c1,inactive: -3.98%
19,C=C(C)[C@H]1CN[C@H](C(=O)O)[C@H]1CC(=O)O,inactive: 8.55% and inactive: 2.9%
20,NC1CC1c1ccccc1 (stereo not given),inactive: -5.38%
21,CCOc1ccc2nc(NC(=O)c3cccn(Cc4ccccc4)c3=O)sc2c1,inactive: 9.98%
22,CSc1ccc(CN2CCN(C(=O)COc3ccc(C)cc3)CC2)cc1,inactive: -8.29%
23,C=CCN1C[C@@H](C)N([C@H](c2ccc(C(=O)N(CC)CC)cc2)c2cccc(OC)c2)C[C@@H]1C,inactive: -2.53%
